Test results from PubChem BioAssay AID686971 (National Center for Advancing Translational Sciences (NCATS), 2013).
Hit rate of the full screen: of about 360,000 compounds, about 7,500 (2.1%) were called active. Inconclusive results, whose numbers are uncertain, are shown with a selection of clear calls. Calls come from the whole dose curve; as a rule, active = well fitted cell-killing curve with a large enough effect; inconclusive = small, poorly fitted or top-dose-only effect, or effect the other way, or another doubt; inactive = no such curve, though single readings can be large or run the other way. Potencies of inconclusive entries are left out as doubtful fits.

test: qHTS for induction of synthetic lethality in tumor cells producing 2HG: qHTS for the HT-1080-IDH1KD cell line; details: HT-1080 IDH1 knockdown viability, ATP luminescence, 48 h; activity, negative = toxicity: at 46.1 µM (top of the series) unless noted;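 for activity, negative = toxicity: 0% = DMSO wells and -100% = cell-free medium wells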
Method in brief: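 HT-1080-IDH1KD cells (IDH1 knocked down), 750/well in RPMI with 5% FBS, treated with compound 48 h at 37 degrees C. Viability by CellTiter-Glo luminescence, normalised to DMSO and no-cell wells; concentration-response curves classed.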
Potency is the fitted concentration of half-maximal effect; tags give direction and shape of the fitted curve.

SMILES | Potency | activity, negative = toxicity
Cc1ccccc1C(OCC(O)CN1CCCCC1CCO)c1ccccc1 (configuration not stated) | inconclusive [cytotoxic, single point] | –
Cc1ccc(S(=O)(=O)/N=C2\C=C(Nc3cccc(C(=O)O)c3)C(=O)c3ccccc32)c(C)c1 | active: 6.51 µM | –
COc1ccc(C)cc1N(CC(=O)Nc1cccc(N(C)S(C)(=O)=O)c1)S(C)(=O)=O | inconclusive [cytotoxic, single point] | –
COc1cccc(CN2CCC2(C)C(=O)Nc2ccc(Cl)c(Cl)c2)c1F (configuration not stated) | inconclusive [cytotoxic, single point] | –
Cc1ccc(SC[C@H](Cc2ccccc2)N2CCN(CCc3ccccc3)CCC2=O)cc1 | inconclusive [cytotoxic, single point] | –
COc1ccccc1C(=O)Oc1ccc2c(c1)O/C(=C\c1ccncc1)C2=O | inconclusive [cytotoxic, single point] | –
CC(C)OP(=O)(OC(C)C)C(NC(=O)c1ccc(Br)cc1)c1ccccc1 (configuration not stated) | inconclusive [cytotoxic, single point] | –
COc1ccc(NC(=O)c2nnn(CC(=O)Nc3ccc4c(c3)OCO4)c2N)c(OC)c1 | inconclusive [cytotoxic, single point] | –
CCCOc1cccc(-c2cc(C(=O)NNC(=S)NCC)c3ccccc3n2)c1 | inconclusive [cytotoxic, single point] | –
Cc1ccc(-c2nc(CS(=O)CC(=O)N3CCN(c4ccccc4)CC3)c(C)o2)cc1 (configuration not stated) | inactive | –
O=C(NC1CCN(C(=O)NCc2ccccc2)CC1)c1ccccc1 | inactive | –
COc1ccc(CN(C)Cc2nc3scc(-c4ccccc4)c3c(=O)[nH]2)cc1OC | inactive | –
CC(=O)Nc1ccc(NC(=O)C(NS(=O)(=O)c2cccc3nsnc23)C(C)C)cc1 (configuration not stated) | inactive | –
Cc1[nH]c2ccccc2c1/C=N/Nc1nncn1N | inconclusive [cytotoxic, single point] | –
COC(=O)c1scc(S(=O)(=O)C(C)C)c1N/N=C(\C#N)C(=O)c1ccc(Cl)cc1 | inconclusive [cytotoxic, single point] | –
CCN1CCN(C(=O)C(C)Nc2ccc(OC)cc2OC)CC1 (configuration not stated) | inactive | –
Cc1ccc2nc3c(cc(C(=O)NCCCn4ccnc4)n3C)c(=O)n2c1 | – | inconclusive: 25.7%
N#C/C(=C/c1ccc(N2CCOCC2)o1)c1ccc(Br)cc1 | inconclusive [cytotoxic, single point] | –
CCC1=NN(C(=O)C(=O)Nc2ccccc2OC)C(O)(C(F)(F)F)C1 (configuration not stated) | active: 1.41 µM | –
CCC(=O)Nc1nc(-c2ccc3c(c2)OCCO3)cs1 | inactive | –
CC(Sc1ncnc2sc(-c3ccccc3)cc12)C(N)=O (configuration not stated) | inconclusive [cytotoxic, partial curve] | –
O=C(COc1ccc([N+](=O)[O-])cc1)N(Cc1cccs1)C1CCS(=O)(=O)C1 (configuration not stated) | inactive | –
Cc1ccc(OC(=O)CCN2C(=O)c3ccccc3C2=O)cc1C | inconclusive [rising, single point] | –
Cn1c(-c2ccc(F)cc2)cnc1NCc1cccc(F)c1 | inconclusive [cytotoxic, single point] | –

SMILES | Potency | activity, negative = toxicity
CCCCC(=O)Nc1ccc(C(=O)NCCCn2ccnc2)cc1 | inconclusive [cytotoxic, single point] | –
CC(C)(C)c1ccc(SCCc2cccnc2)cc1 | inactive | –
Cc1cccc(COC[C@H](Cc2ccccc2)N2CCN(C(=O)c3cc(Cl)cc(Cl)c3)CCC2=O)c1 | inconclusive [cytotoxic, single point] | –
O=C(NNC(=O)c1cc(-c2cccc(Br)c2)nc2ccccc12)c1csc(N2CCOCC2)n1 | inconclusive [cytotoxic, single point] | –
COc1ccc(NC(=O)CSc2c3c(nc4ccccc24)CCCC3)c(OC)c1 | inconclusive [cytotoxic, single point] | –
Cc1ccc2c(C)c(C(=O)N(C)CCC3CCCCO3)oc2c1C (configuration not stated) | – | inconclusive: -34.8% [cytotoxic]
Cc1ccccc1-n1c(C)n[nH]c1=S | inconclusive [cytotoxic, single point] | –
COCc1ccc(C(=O)NC2CCSc3ccccc32)cc1 (configuration not stated) | inactive | –
COc1ccccc1OCCC(=O)OCC(=O)NC(C)c1ccccc1 (configuration not stated) | – | inconclusive: -27% [cytotoxic]
CCOC1CC(C)(C)NC(=S)N1 (configuration not stated) | – | inconclusive: 32.1%
CC1CCCC(NS(=O)(=O)c2cc(Br)cnc2N)C1C (configuration not stated) | inconclusive [cytotoxic, single point] | –
CCC(C)Sc1ccc(-c2nc3cnccn3c2NC2CCCCC2)cc1 (configuration not stated) | inconclusive [cytotoxic, single point] | –
O=C(NCc1ccco1)c1cc(-c2cccs2)on1 | inconclusive [cytotoxic, single point] | –
Cc1ccc(S(=O)(=O)c2c(N)n(Cc3ccco3)c3nc4ccccc4nc23)cc1 | inconclusive [cytotoxic, single point] | –
Cc1ccc2sc(N(CCCN(C)C)C(=O)c3ccc(S(=O)(=O)N4CCCCCC4)cc3)nc2c1C | inconclusive [cytotoxic, single point] | –
CCCc1nc2ccc(Cl)cn2c1Cc1cccc(Cl)c1 | inconclusive [cytotoxic, single point] | –
O=S(=O)(NCC(c1cccnc1)N1CCN(c2ccc(F)cc2)CC1)c1ccccc1 (configuration not stated) | inactive | –
COC(=O)c1nnn(-c2nonc2N)c1CN1CCc2ccccc21 | inconclusive [cytotoxic, single point] | –
CCn1c(SCC(N)=O)nnc1-c1ccc2[nH]c(C)c(C)c2c1 | inactive | –
Cc1ccc(C)c(S(=O)(=O)N2CCC(c3nc4c(nnn4Cc4ccc5c(c4)OCCO5)c(=O)[nH]3)CC2)c1 | inconclusive [cytotoxic, single point] | –
Cc1ccc(NC(=O)CN(C)C(=O)c2ccc(NS(=O)(=O)c3ccc4[nH]c(=O)[nH]c4c3)cc2)cc1 | inactive | –
O=C(NC1CCCCCC1)c1ccc([N+](=O)[O-])s1 | inconclusive [cytotoxic, partial curve] | –
Cc1cccc(N(C(=O)c2snc(C(N)=O)c2N)C(C(=O)NCc2ccccc2)c2ccncc2)c1 (configuration not stated) | inconclusive [cytotoxic, single point] | –
Cc1[nH]c2ccccc2c1C(=O)CSc1nc2ncc(Cl)cc2[nH]1 | – | inconclusive: -10.7% [cytotoxic]

SMILES | Potency | activity, negative = toxicity
O=C(O)C(NC(=O)c1ccccc1)=C(Cl)Cl | inactive | –
COc1ccc2oc(C(=O)Nc3ccc(S(=O)(=O)N(C)C4CCN(C)CC4)cc3)c(C)c2c1 | active: 18.4 µM | –
C=C[C@]1(C)C=C2C(=O)[C@@]3(O)OC(=O)[C@@]4(CCCC(C)(C)[C@H]34)[C@@]2(O)CC1 | active: 2.91 µM | –
COc1cccc(Cn2c(=O)sc3ccccc3c2=O)c1 | inactive | –
O=C(Nc1ccccc1)C1Cc2c(-c3ccccc3Oc3ccccc3)ccnc2O1 (configuration not stated) | inconclusive [cytotoxic, full curve, poor fit] | –
Cc1ccc(-c2csc(N3CCC[C@@H]3C(=O)NCCn3c(C(F)(F)F)nc4ccccc43)n2)cc1 | inconclusive [cytotoxic, single point] | –
CCCNC(=O)CSc1nnc(-c2ccco2)n1C | inconclusive [cytotoxic, single point] | –
Cc1cc(C)n(-c2nnc3n2N=C(c2c[nH]c4ccccc24)CS3)n1 | active: 14.6 µM | –
CC1CCC(C(C)C)C(OCC(O)CNC(C)c2ccccc2)C1 (configuration not stated) | inconclusive [cytotoxic, single point] | –
CCOc1ccc(/C=N/NC(=O)Cc2csc(Nc3cccc(C(F)(F)F)c3)n2)c(OCC)c1 | inconclusive [cytotoxic, single point] | –
CCOc1ccc(C(=O)N/N=C(\c2ccccc2)c2ccccn2)cc1 | active: 2.31 µM | –
CC1(C(=O)Nc2ccc(Cl)c(Cl)c2)CCN1Cc1ccccc1OC(F)F (configuration not stated) | inactive | –
CCn1c2nc(SCCN3CCOCC3)nnc2c2cc(C)cc(C)c21 | inactive | –
Cc1cccc(C(=O)NNC2=C(C(=O)C(F)(F)F)CCC2)c1O | active: 20.6 µM | –
COc1ccc(-c2cn(-c3ccccc3)c3[n+]2CCS3)cc1 | active: 13 µM | –
C[C@@]12C(=O)Nc3ccccc3C(=O)N1[C@H]1c3cc(Br)ccc3OC[C@@H]1[C@@H]2c1ccccc1 | active: 5.8 µM | –
CCN(CC)CCCNC(=O)c1cc2nc3c(c(C(F)(F)F)n2n1)CCc1ccccc1-3 | inconclusive [cytotoxic, single point] | –
COc1ccc(-c2ccc(C(=O)NCC3CCOCC3)c3occc23)c(C)c1 | inconclusive [cytotoxic, single point] | –
COc1cc(-c2noc(C)c2C#Cc2ccccn2)cc(OC)c1OC | active: 2.06 µM | –
CCOC(=O)c1c(C)[nH]c(N=Nc2ccccc2C)c1C | inconclusive [cytotoxic, single point] | –
Cc1ccc(CCNC(=O)CN(c2ccc(C)cc2)S(=O)(=O)c2c(C)noc2C)cc1 | inactive | –
Cc1ccc(OCc2ccc(C(=O)NCc3cccnc3)cc2)cc1C | active: 18.4 µM | –
O=C(N/N=C/c1ccccn1)c1ccc(Cl)cc1 | inconclusive [cytotoxic, partial curve] | –
CCN(CC)C(=O)C(C(=O)c1cccc([N+](=O)[O-])c1)n1cc(Cl)ccc1=O (configuration not stated) | inactive | –
